From the supplement of paper PMC10498489
Screen size: about 2,300 compounds; about 330 (14%) showed activity.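 Rule for the calls: active = median modified Z-score above 1.96; inactive = 1.96 or below.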 The list shows a part of the results, in another mix than the full data.

What follows are compounds tested on HepG2 Srxn1-GFP reporter cells (+30 nM CDDO-Me) (assay: Srxn1-GFP intensity median modified Z-score relative to plate median; higher = stronger NRF2 / oxidative stress reporter activation, active = hit call of the paper). Conditions: 10 µM; exposure time: 24h.
Procedure, shortened: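 The per-plate modified Z-score of GFP intensity, taken as a median across replicates, is what each value represents. Three replicate plates of HepG2 Srxn1-GFP BAC reporter cells were exposed for 24 h to an NRF2 activator at 30 nM combined with compound at 10 μM (≤0.1% DMSO). Cytoplasmic GFP per cell was read from confocal images, excluding any with under 100 cells, and scaling used 1.4826 × median absolute deviation.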

Structure (SMILES)	Srxn1-GFP intensity median modified Z-score
CN(C)C(=O)Oc1ccc[n+](C)c1 [euspeclibcmpd551]	inactive: 0.0507
NCCCNCCSP(=O)(O)O [euspeclibcmpd523]	inactive: 0.0705
CC(C)c1cc2c(c(O)c1O)[C@@]1(C(=O)O)CCCC(C)(C)C1CC2 (stereo partly specified) [euspeclibcmpd2302]	active: 5.33
Nc1ccc([As](=O)(O)O)cc1 [euspeclibcmpd2461]	active: 11.1
CCCCCC1C(=O)O[C@H](C)C(NC(=O)c2cccc(NC=O)c2O)C(=O)O[C@@H](C)[C@@H]1OC(=O)CC(C)C (stereo partly specified) [euspeclibcmpd1446]	active: 39.4
Cc1nc(=O)c(C[n+]2csc(CCO)c2C)c[nH]1 [euspeclibcmpd1800]	inactive: 0.155
NC(=O)CN1CCCC1=O [euspeclibcmpd441]	inactive: -0.175
COc1cc2c(cc1OC)C(C)NCC2 (stereo unspecified) [euspeclibcmpd1553]	inactive: -0.0767
CC(C)c1c(CN(C)C(C)Cc2ccccc2)n(C)n(-c2ccccc2)c1=O (stereo unspecified) [euspeclibcmpd1220]	inactive: -0.423
O=P1(NCCCl)OCCCN1CCCl (stereo unspecified) [euspeclibcmpd803]	inactive: -0.375
CCC(C)C(=O)O[C@@H]1C[C@@]2(C)[C@H](c3ccoc3)OC(=O)CC23OC2(C)OC34[C@H](OC(=O)C(C)C)[C@@]3(O)[C@@H](OC(=O)C5(C)OC5C)[C@@]5(C)C[C@]3(O)[C@@](C)([C@H]5CC(=O)OC)C14O2 (stereo partly specified) [euspeclibcmpd1627]	inactive: 0.307
NCCc1c[nH]c2ccccc12 [euspeclibcmpd1506]	inactive: -0.231
Clc1ccc(C(OCCN2CCCCC2)c2ccccc2)cc1 (stereo unspecified) [euspeclibcmpd1155]	inactive: -0.521
O=C1CC2OCC=C3CN4CC[C@]56c7ccccc7N1C5[C@H]2[C@H]3CC46 (stereo partly specified) [euspeclibcmpd327]	inactive: -0.00366
CC1[C@H](C)OC(=O)CC(O)CC(O)CC(O)CCC(O)C(O)C[C@]2(O)CC(O)C(C(=O)O)C(CC(OC3O[C@H](C)[C@@H](O)[C@H](N)[C@@H]3O)/C=C/C=C/C=C/C=C/CC/C=C/C=C/[C@H](C)[C@H]1O)O2 (stereo partly specified) [euspeclibcmpd218]	inactive: 0.964
NCCc1c[nH]c2ccc(O)cc12 [euspeclibcmpd2141]	inactive: -0.0129
CCN(C(C)=O)c1cccc(-c2ccnc3c(C#N)cnn23)c1 [euspeclibcmpd886]	inactive: -0.312
CC1=C2CCC3C(CC[C@]4(C)C(=O)CCC34)[C@@]2(C)CCC1=O (stereo partly specified) [euspeclibcmpd1163]	inactive: -0.15
CO[C@]12C[C@@H](COC(=O)c3cncc(Br)c3)CN(C)[C@@H]1Cc1cn(C)c3cccc2c13 [euspeclibcmpd391]	inactive: -0.832
C[C@]12C=CC(=O)CC1=CCC1C2CC[C@]2(C)C(=O)CCC12 (stereo partly specified) [euspeclibcmpd1581]	inactive: -0.0301
CC(C)(C)NCC(O)c1ccccc1Cl (stereo unspecified) [euspeclibcmpd2095]	inactive: -0.294
CN(C)C(=S)SSC(=S)N(C)C [euspeclibcmpd571]	inactive: 1.95

Structure (SMILES)	Srxn1-GFP intensity median modified Z-score
CC(C)C[C@H](CN)CC(=O)O [euspeclibcmpd622]	inactive: -0.272
COc1cc2c(cc1-c1cc3cc4ccoc4cc3oc1=O)OCO2 [euspeclibcmpd1721]	inactive: 0.147
COc1cc2c(cc1OC)C1C(=O)c3ccc4oc(C(C)C)cc4c3O[C@@H]1CO2 (stereo partly specified) [euspeclibcmpd1384]	inactive: 0.895
CN1C2C[C@H](OC(=O)C(CO)c3ccccc3)C[C@H]1[C@H]1OC21 (stereo partly specified) [euspeclibcmpd266]	inactive: -0.44
CCC(N)C(O)c1ccc(O)c(O)c1 (stereo unspecified) [euspeclibcmpd646]	inactive: -0.33
C[C@]12CC[C@H](O)CC1=CCC1C2CC[C@]2(C)C(=O)CC[C@@H]12 (stereo partly specified) [euspeclibcmpd1201]	inactive: -0.236
Oc1cc(Cl)ccc1Oc1ccc(Cl)cc1Cl [euspeclibcmpd800]	active: 3.85
CC1(C)C(C=C(Cl)Cl)C1C(=O)OC(C#N)c1cccc(Oc2ccccc2)c1 (stereo unspecified) [euspeclibcmpd1141]	inactive: -0.358
COc1ccc(Cc2nccc3cc(OC)c(OC)cc23)cc1OC [euspeclibcmpd226]	inactive: 0.774
O=C(N/N=C/c1ccc([N+](=O)[O-])o1)c1cc([N+](=O)[O-])cc([N+](=O)[O-])c1O [euspeclibcmpd462]	active: 3.58
COC(=O)C1=CCCN(C)C1 [euspeclibcmpd336]	inactive: -0.362
CC1(C)C(=O)C=C[C@@]2(C)C1C[C@@H](O)[C@]1(C)C2CC[C@@]2(C)[C@H](c3ccoc3)OC(=O)C3O[C@]321 (stereo partly specified) [euspeclibcmpd1629]	active: 32.4
CCn1cc(C(=O)O)c(=O)c2cc3c(cc21)OCO3 [euspeclibcmpd954]	inactive: -0.411
NCCc1ccc(O)cc1 [euspeclibcmpd1322]	inactive: -0.212
CN(C)C(=O)Oc1cc(OC(=O)N(C)C)cc(C(O)CNC(C)(C)C)c1 (stereo unspecified) [euspeclibcmpd1204]	inactive: -0.0421
COc1ccc2c3c([nH]c2c1)C(C)=NCC3 [euspeclibcmpd2276]	active: 66
C=C(C)[C@H]1Cc2c(ccc3c2O[C@@H]2COc4cc(OC)c(OC)cc4C2C3=O)O1 (stereo partly specified) [euspeclibcmpd1688]	active: 63.1
C=C[C@H]1C[N@]2CC[C@H]1C[C@@H]2[C@H](O)c1ccnc2ccccc12 [euspeclibcmpd2140]	inactive: 0.321
CCC(C(=O)[C@H](C)[C@@H](O)[C@H](C)[C@@H]1O[C@@H]([C@@H](CC)C(=O)O)CC[C@@H]1C)[C@H]1OC2(C=C[C@@H](O)[C@]3(CC[C@@](C)([C@H]4CC[C@](O)(CC)[C@H](C)O4)O3)O2)[C@H](C)C[C@@H]1C (stereo partly specified) [euspeclibcmpd2084]	active: 6.06
O=[N+]([O-])c1cc([As](=O)(O)O)ccc1O [euspeclibcmpd2449]	active: 14.6
C[C@H]1CC[C@]2(NC1)OC1CC3C4CCC5C[C@@H](O[C@@H]6O[C@H](CO)[C@H](O[C@H]7O[C@H](CO)[C@@H](O)[C@H](O[C@@H]8OC[C@@H](O)[C@H](O)[C@H]8O)[C@H]7O[C@@H]7O[C@H](CO)[C@@H](O)[C@H](O)[C@H]7O)[C@H](O)[C@H]6O)CC[C@]5(C)C4CC[C@]3(C)C1[C@@H]2C (stereo partly specified) [euspeclibcmpd480]	active: 71.3
CN(C)Cc1c[nH]c2ccccc12 [euspeclibcmpd2039]	inactive: 0.0259

Structure (SMILES)	Srxn1-GFP intensity median modified Z-score
CC(=O)O[C@@H]1CC2C(C)(C)C(=O)C=C[C@]2(C)C2CC[C@]3(C)C(=CC(=O)O[C@H]3c3ccoc3)[C@@]21C (stereo partly specified) [euspeclibcmpd1551]	active: 38.8
C=C/C=C\CC1=C(C)C(OC(=O)C2[C@@H](C=C(C)C)C2(C)C)CC1=O (stereo partly specified) [euspeclibcmpd1257]	active: 2.3
C=C(C)[C@@H]1[C@H]2OC(=O)[C@@H]1[C@]1(O)C[C@H]3O[C@]34C(=O)O[C@H]2[C@]14C [euspeclibcmpd1351]	active: 17.9
CC1OC(OC2C=C3CCC4C(CCC5(C)C(c6ccc(=O)oc6)CCC45O)C3(C)CC2)C(O)C(O)C1O (stereo unspecified) [euspeclibcmpd1931]	active: 2.81
NNCc1ccccc1 [euspeclibcmpd1327]	inactive: 0.32
CC1=CCC[C@@H]2C1(C)CCC(C)[C@@]2(C)CC/C(C)=C/Cn1c[n+](C)c2c(=N)nc[nH]c21 (stereo partly specified) [euspeclibcmpd1491]	active: 13.7
CC(=O)OC1CN2CCC1CC2 (stereo unspecified) [euspeclibcmpd385]	inactive: -0.0983
CC(=O)OC1CC(OC(C)=O)C2(C)C(CC(OC(C)=O)C3(C)C2CCC2(C)C(c4ccoc4)C(=O)C4OC423)C1(C)C (stereo unspecified) [euspeclibcmpd1943]	inactive: 1.55
C[N+](C)(C)CCCCCCCCCC[N+](C)(C)C [euspeclibcmpd902]	active: 4.92
C[C@@H]([C@H](O)c1ccccc1)N(C)C [euspeclibcmpd1255]	inactive: 0.2
CCCN1C[C@H](CSC)C[C@@H]2c3cccc4[nH]cc(c34)C[C@H]21 [euspeclibcmpd1280]	inactive: -0.0876
COc1cc([C@@H]2c3cc4c(cc3[C@H](O)[C@H]3COC(=O)C23)OCO4)cc(OC)c1OC (stereo partly specified) [euspeclibcmpd2060]	active: 27.1
COc1cc([C@@H]2c3cc4c(cc3[C@H](O)[C@H]3COC(=O)C23)OCO4)cc(OC)c1OC (stereo partly specified) [euspeclibcmpd2203]	active: 11.5
CC1=CC(=O)c2c(O)cccc2C1=O [euspeclibcmpd1444]	active: 67.7
CC(C)N(CCC(C(N)=O)(c1ccccc1)c1ccccn1)C(C)C (stereo unspecified) [euspeclibcmpd802]	inactive: -0.08
Cc1ccc(-c2nc3ccc(C)cn3c2CC(=O)N(C)C)cc1 [euspeclibcmpd758]	inactive: -0.989
C[N+]1([O-])C2CCC1CC(OC(=O)C(CO)c1ccccc1)C2 (stereo unspecified) [euspeclibcmpd2322]	inactive: -0.247
CC1=NCCc2c1[nH]c1cc(O)ccc21 [euspeclibcmpd2357]	active: 7.71
O=C(COc1ccc2ccccc2c1)N1CCN(Cc2ccc3c(c2)OCO3)CC1	active: 4.61
C1CCc2nnnn2CC1 [euspeclibcmpd962]	inactive: 0.439
CC(C)(O)[C@@H]1[C@H]2OC(=O)[C@@H]1[C@]1(O)C[C@H]3O[C@]34C(=O)O[C@H]2[C@]14C [euspeclibcmpd1439]	inactive: -0.455
O=c1[nH]c2ccccc2n1CCCN1CCC(n2c(=O)[nH]c3cc(Cl)ccc32)CC1 [euspeclibcmpd111]	inactive: 0.232
